45 compounds from PubChem BioAssay AID651582 (Sanford-Burnham Center for Chemical Genomics, 2012) can be followed below.

The other results are listed elsewhere or left out. The main result of the screen is listed elsewhere. These columns were measured beside it and carry no call. The list favours compounds with an active or inconclusive main result.

This experiment can be described thus: inhibitors of triacylglycerol accumulation, primary screen, cell-based, uHTS, fluorescence, H9c2 (AID 651582). As to conditions: H9c2 cells, Nile Red lipid (TAG) fluorescence; measured here:; at 12.5 µM; cells loaded with 200 µM oleic acid.
In the case of `CC(Sc1nc(NCc2ccccc2)nc(N2CCOCC2)n1)C(=O)Nc1ccccc1` (stereo not given), the DAPI nuclei signal change (viability), lower = more cytotoxic was -0.115%.

For the compound `CCOC(=O)c1cc(-c2ccccc2)sc1NC(=O)C(C)N1C(=O)NC(C)(c2ccc(Cl)cc2)C1=O` (stereo not given), the DAPI nuclei signal change (viability), lower = more cytotoxic is -5.7%.

Take `CCN(CC)S(=O)(=O)c1ccc2c(c1)C(=NO)c1cc(S(=O)(=O)N(CC)CC)ccc1-2`: the DAPI nuclei signal change (viability), lower = more cytotoxic is -9.51%.

Consider `COc1ccc(Nc2nc3cc(-c4sccc4C)sc3c(=O)n2C)cc1OC`, for which the DAPI nuclei signal change (viability), lower = more cytotoxic is -32.8%.

For `C=CCOc1c(OC)cc(/C=N/Nc2cccc(C(=O)O)c2)c(Br)c1Br`, the DAPI nuclei signal change (viability), lower = more cytotoxic was -36.8%.

As for `CCOc1ccccc1NC(=O)CCC(=O)Nc1ccccc1OCC`, the DAPI nuclei signal change (viability), lower = more cytotoxic was -11.8%.

On to `Cc1ccc(NC(=O)c2cc([N+](=O)[O-])ccc2NCc2cccnc2)cc1Cl`, for which the DAPI nuclei signal change (viability), lower = more cytotoxic was -3.32%.

With `CCCC(=O)Nc1nc2nc(-c3ccccc3)cc(-c3ccccc3)n2n1`, the DAPI nuclei signal change (viability), lower = more cytotoxic is -4.22%.

For the compound `N#CC(C#N)=c1ccc2c(c1)N1C(c3ccccc3)=CC(c3ccccc3)C3CCCCC31N=2` (stereo not given), the DAPI nuclei signal change (viability), lower = more cytotoxic was -5.31%.

As for `COC(=O)C1=C(C)N(Cc2ccccc2)C(=NCc2ccccc2)N[C@H]1c1ccccc1`, the DAPI nuclei signal change (viability), lower = more cytotoxic is -44.4%.

As for `COc1ccc(S(=O)(=O)N2c3cc(Cl)ccc3Oc3nc4ccccc4nc32)cc1`, the DAPI nuclei signal change (viability), lower = more cytotoxic is -25.2%.

As for `COc1ccccc1NC(=O)Nc1nc(C(N)Cc2ccc(C(F)(F)F)cc2)cs1` (stereo not given), the DAPI nuclei signal change (viability), lower = more cytotoxic was -45.6%.

As for `COc1cccc(/C=N/NC(=O)CNC(=O)COc2ccccc2)c1O`, the DAPI nuclei signal change (viability), lower = more cytotoxic was -14.8%.

`CN1CCN(c2ccccc2NC(=O)c2ccc([N+](=O)[O-])o2)CC1`: the DAPI nuclei signal change (viability), lower = more cytotoxic was -45.6%.

For the compound `Cc1c(/C=N/Nc2nc3ccccc3[nH]2)c2ccccc2n1C`, the DAPI nuclei signal change (viability), lower = more cytotoxic was -23.3%.

Consider `CCCc1cc(N2CCCC2)n2nc(C)c(-c3ccccc3)c2n1`, for which the DAPI nuclei signal change (viability), lower = more cytotoxic is 12.3%.

Take `Cc1cc(C(=O)CCl)c(C)n1CCc1ccc(Cl)cc1`: the DAPI nuclei signal change (viability), lower = more cytotoxic is -40.8%.

As for `CN1CCN(C(=O)c2ccc(Cc3cn(C)c4ccccc34)nc2)CC1`, the DAPI nuclei signal change (viability), lower = more cytotoxic was -41.7%.

Turning to `O=C(CSc1cccc2cccnc12)Nc1cc(C(=O)O)cc(C(=O)O)c1`, the DAPI nuclei signal change (viability), lower = more cytotoxic is -11.9%.

On to `Cc1ccc(-c2nn3c(C)nnc3c3ccccc23)cc1S(=O)(=O)NC(C)c1ccccc1` (stereo not given), for which the DAPI nuclei signal change (viability), lower = more cytotoxic was -2.69%.

Consider `COC(=O)[C@]1(CC(C)C)N[C@H](c2ccc(-c3ccc(OC)cc3)cc2)[C@@H]2C(=O)N(C)C(=O)[C@@H]21`, for which the DAPI nuclei signal change (viability), lower = more cytotoxic was found to be 42.4%.

As to `N#CCCN1CCCc2cc(N=Nc3ccc(C(F)(F)F)cc3)ccc21`, the DAPI nuclei signal change (viability), lower = more cytotoxic was -7.6%.

Turning to `C[C@@]12C(=O)Nc3cc(F)c(F)cc3C(=O)N1[C@H]1c3cc(Cl)ccc3OC[C@@H]1[C@@H]2c1ccccc1`, the DAPI nuclei signal change (viability), lower = more cytotoxic is -29.5%.

Consider `O=[N+]([O-])c1ccc(-c2cn3nc(-c4ccccc4)c(-c4ccccc4)nc3n2)cc1`, for which the DAPI nuclei signal change (viability), lower = more cytotoxic is -41.5%.

As to `COc1ccc(N=C2C(=Nc3ccc(OC)cc3)N(c3ccc(OC)cc3)C(=S)N2C(=O)c2ccc(OC)cc2)cc1`, the DAPI nuclei signal change (viability), lower = more cytotoxic is -1.93%.

In the case of `Cc1cc(N/N=C/c2cccc(Cl)c2)nc(-n2nc(C)cc2C)n1`, the DAPI nuclei signal change (viability), lower = more cytotoxic is -25.1%.

Take `COc1ccc(-c2cc(C(F)F)n3ncc(C(=O)Nc4cccc(S(=O)(=O)N5CCOCC5)c4)c3n2)cc1`: the DAPI nuclei signal change (viability), lower = more cytotoxic is 9.91%.

Take `CC1(c2ccccc2)O[C@@H]2C[C@H]3[C@@H]4CCC5=CC(=O)C=C[C@]5(C)[C@@]4(F)[C@@H](O)C[C@]3(C)[C@]2(C(=O)CO)O1` (stereo not given in full): the DAPI nuclei signal change (viability), lower = more cytotoxic amounted to 0.411%.

For `COc1cc(C#Cc2c(-c3cncn3C)n(C)c3ccc(-c4ccc(OC)nc4)cc23)cc(OC)c1`, the DAPI nuclei signal change (viability), lower = more cytotoxic was 148%.

For the compound `COc1ccc(-c2nc(-c3ccccc3)c(-c3cc([N+](=O)[O-])ccc3C)[nH]2)cc1OC`, the DAPI nuclei signal change (viability), lower = more cytotoxic was -1.19%.

As to `COc1cc(Cn2c(-c3nonc3N)nc3ccccc32)ccc1C`, the DAPI nuclei signal change (viability), lower = more cytotoxic is -16.8%.

For `CCc1nnc(NS(=O)(=O)c2ccc(NC(=O)c3ccc([N+](=O)[O-])s3)cc2)s1`, the DAPI nuclei signal change (viability), lower = more cytotoxic was -33.6%.

With `CCCCn1c(=N)n(CC(=O)c2ccc(Br)s2)c2ccccc21`, the DAPI nuclei signal change (viability), lower = more cytotoxic was -25.8%.

In the case of `O=S(=O)(c1ccc(OCC(O)CNC23CC4CC(CC(C4)C2)C3)c(Cl)c1)N1CCOCC1` (stereo not given), the DAPI nuclei signal change (viability), lower = more cytotoxic was -17.3%.

Turning to `Cc1ccccc1NC(=O)c1nc(S(C)(=O)=O)ncc1Cl`, the DAPI nuclei signal change (viability), lower = more cytotoxic is -48.2%.

With `CCOC(=O)/C(=C\c1cccnc1)C(=O)c1cc(C(C)=O)c(Nc2ccccc2)s1`, the DAPI nuclei signal change (viability), lower = more cytotoxic was -48.3%.

Take `Oc1cccc2cc(Nc3ccccc3)cnc12`: the DAPI nuclei signal change (viability), lower = more cytotoxic was -22.2%.

As for `CSC1=C(C#N)C(c2ccccc2C)C(C#N)=C(N)N1` (stereo not given), the DAPI nuclei signal change (viability), lower = more cytotoxic was -24.1%.

Turning to `O=C(CCl)Nc1cccc(S(=O)(=O)NC2=NCCCCC2)c1`, the DAPI nuclei signal change (viability), lower = more cytotoxic is -27.7%.

In the case of `O=C(Nc1cccc(NS(=O)(=O)c2ccc(S(=O)(=O)NC3CC3)cc2)c1)c1ccccn1`, the DAPI nuclei signal change (viability), lower = more cytotoxic was 4.06%.

In the case of `Cc1cc(NC(=O)CC2CCCC2)n(-c2nc3ccccc3[nH]2)n1`, the DAPI nuclei signal change (viability), lower = more cytotoxic was -14.9%.

Take `COc1ccc(-c2oc(=O)c3cc(OC)c(OC)cc3c2/C=C/c2ccc([N+](=O)[O-])cc2)cc1`: the DAPI nuclei signal change (viability), lower = more cytotoxic was 3.16%.

As to `CCOc1ccccc1NC(=O)C(CC(C)C)NC(=O)C1CCCCC1` (stereo not given), the DAPI nuclei signal change (viability), lower = more cytotoxic came out at 0.414%.

For `Cc1ccc(Cn2cc(/C=N/NC(=O)Cc3nnc(NC(=O)c4ccc(C)cc4)s3)c3ccccc32)cc1`, the DAPI nuclei signal change (viability), lower = more cytotoxic is -38.5%.

`O=C(CCC1CCCCC1)NCCN1C2=NC[C@@H](Cc3ccccc3)N2C[C@H]1Cc1ccc(O)cc1`: the DAPI nuclei signal change (viability), lower = more cytotoxic was -32.3%.
